Laboratory results from the supplement of paper PMC10126150.
Values marked as one replicate rest on one cluster of the flow cell; about a third of the high ones do not repeat.

System: ATP
Assay: switch fluorescence ratio, 500 uM ATP over buffer (Cy3 cluster intensity, sum of 5 cycles each) (fold (ratio)); higher = stronger signal-on switching upon ATP binding; sequences stand for … in TCGTCGGCAGCGTCAGATGTGTATAAGAGACAGTTTTTTTTTTTTTTTTTTTTTTTTT…TC
Details: aptamer strand: ATP DNA aptamer (quencher-CACCTGGGGGAGTATTGCGGAGGAAGG + anchor), 100 nM annealed; ATP concentration: 500 uM; one replicate
Summary of the method: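 Cy3-labelled switching-strand clusters on a modified Illumina MiSeq flow-cell were annealed to 100 nM quencher-labelled ATP aptamer and imaged first in selection buffer, then after 15 min with 500 uM ATP at 22 °C. NaOH stripping and re-annealing separated each of five buffer/ATP cycles, and clusters outside 100-1000 RFU were excluded. The fluorescence ratio sums target-cycle Cy3 intensity over buffer-cycle Cy3 intensity per cluster and averages it per switch-domain sequence.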
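Note: ATP exposure 15 min at 22 °C before imaging.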

| Sequence | switch fluorescence ratio |
| --- | --- |
| TTGAGCCCTG | 1.05 |
| ATTAACCTTG | 1.02 |
| GAGTCTCAGA | 1.02 |
| GGAACTGGAT | 1.01 |
| CGAAATCGTA | 1.05 |
| TTAGGGGTAG | 0.998 |
| AGGCACCAAA | 1.24 |
| CTTCTGCTTC | 1.02 |
| ATGCCGCGTA | 1.04 |
| CGCCTTCCAG | 1.3 |
| ATAGTGCCCA | 1.03 |
| CGGGTGCACA | 0.924 |
| ATTATAAGTC | 1.04 |
| TGACGACCCC | 2 |
| TCTTCGGACT | 0.995 |
| ACCAGTCCAT | 1.04 |
| TAGCAGCCTG | 1.01 |
| CCAGCAGCG | 1.05 |
| AGTACATCTT | 1.09 |
| TGGATTTTC | 0.977 |
| TGTGCTTAGG | 0.959 |
| ATAAGGGAAT | 1.01 |
| GTGTTGCATC | 1.02 |
| AATCCCTCTG | 1.1 |
| TCTGTTTCGA | 1.02 |
| TCAACGACCG | 1.07 |

| Sequence | switch fluorescence ratio |
| --- | --- |
| GCTCAGGAGG | 1.06 |
| GGGTGACGAC | 1.13 |
| GGTCATTAAG | 1.03 |
| CTAGGTGTTA | 1.03 |
| CAAAATTTAC | 1.19 |
| GATAACATCG | 1.03 |
| CAGTTTTTGA | 1.02 |
| TCCTTTTAAG | 1.04 |
| CGGTGCCTA | 0.974 |
| GGGTGATCTA | 0.959 |
| GGTGCAGACC | 1.01 |
| ACCCAGAAG | 1.04 |
| GTGCTTAAGA | 1 |
| TCCTCACATT | 1.34 |
| AGAAGATGGG | 0.975 |
| GACATTCTAC | 1.08 |
| TATCCCTTAG | 0.999 |
| GCCCGGAGTC | 1.09 |
| GAAGTCCTCA | 1.03 |
| GAATTGCGGA | 0.98 |
| GATCCAGGCA | 0.989 |
| GATAGACGAT | 0.992 |
| GCCATGGTGC | 1.23 |
| AACTCGATCG | 0.97 |
| CTGTGTGGTT | 0.978 |
| TTGCCGGTGT | 1.07 |

| Sequence | switch fluorescence ratio |
| --- | --- |
| ATGACGCTCG | 1.02 |
| AAGCATCCCG | 1 |
| CTAATATGG | 0.937 |
| GTAGGGTACG | 0.993 |
| GATAGGTTT | 1.01 |
| TCACTATGGA | 1.04 |
| GTCCATCGAC | 0.965 |
| TGAGGCCCGG | 1.01 |
| TGGACAAGTC | 0.943 |
| AGGCCAAGCT | 1.01 |
| CCGCGAAAGG | 1.66 |
| GGGGATCACA | 1.04 |
| GTAGTATCTC | 1.02 |
| CGCGGGAGCT | 1.06 |
| AGCTCGGCGG | 0.991 |
| GGGACTTACA | 1.24 |
| TGCTCCATGG | 1.01 |
| AGAGTAAAA | 1.11 |
| GACTCTTGCA | 1.13 |
| AGGCATCTTG | 1.03 |
| CTGGATTTGA | 0.981 |
| GTATGTGGAG | 0.982 |
| GCTGGAAAAG | 1.03 |
| GTCCCAAGTT | 1.03 |
| CGCCGCTAAG | 2.94 |
| TGCGGGAGAG | 1.01 |

| Sequence | switch fluorescence ratio |
| --- | --- |
| GAGAAGGTGG | 1.07 |
| TAGGTGCGTT | 1.03 |
| TACCACTTGC | 1.03 |
| TGGCGGTTGG | 1.01 |
| GGTAGGGTCA | 1 |
| GTGGGATTCA | 1.01 |
| GGCACTTATG | 0.992 |
| CGGGGCAATA | 2.75 |
| GTCGAGTCGT | 1.03 |
| GGACTTGGAA | 0.953 |
| TTATACTCTG | 1 |
| TGAATCTT | 1.04 |
| AAATTCCCGC | 1.16 |
| AAAGCCTCTA | 0.987 |
| GAAGGAGTAA | 1.04 |
| GGCATATTGG | 1.06 |
| GGGGTTCTCA | 0.987 |
| TATGAAGCCA | 1.01 |
| TGTGGTTCCG | 1 |
| CTAGTATTT | 1.03 |
| TACAATATCA | 1.02 |
| GATGTCACGG | 0.962 |
| GGCTACGG | 1.03 |
| TATGTACCTC | 1.1 |
| TAAAACTGGT | 1.07 |
| ACGGGTAGAA | 0.971 |

| Sequence | switch fluorescence ratio |
| --- | --- |
| CGAAAGATAT | 1 |
| TCAAGGAGTA | 0.942 |
| GTAACAGTGT | 1.01 |
| ACAATAGGGA | 1.02 |
| AGTGTCATAT | 1.02 |
| AAGCGCGTAC | 1.6 |
| TCATAGTCTG | 1.06 |
| AAAAGGCCAC | 0.982 |
| TCTAAAACGT | 1.02 |
| GGCCGGCATC | 1.03 |
| AGCATACTTA | 1.19 |
| CGGCGTGTTA | 1 |
| CAGCGCGAAA | 0.996 |
| TTGTGTTGAC | 1 |
| GTGTGTGACA | 0.99 |
| ACCCTAGCCA | 1.07 |
| CTTAGGGAAA | 0.957 |
| TCGGACGTAT | 1.09 |
| GACGGGGAT | 1.07 |
| TACGACCCCC | 2.9 |
| TGGTACTATG | 1 |
| ATGTGTTCAA | 0.999 |
| GCGCCACGAA | 1.05 |
| ATCCTATCTC | 1.05 |
| ACAATTTGTC | 1.05 |
| GGGTTCTCCC | 1.01 |

| Sequence | switch fluorescence ratio |
| --- | --- |
| ACAAAGTTGT | 0.959 |
| TACTCTTTCG | 1.05 |
| TCCTATTAGT | 1.02 |
| ATAATCGCAC | 1.15 |
| CCGGGTAACT | 1.1 |
| AGGATGGCAT | 1 |
| GCCTCCCGTT | 1.1 |
| CGGGGTCACT | 1.03 |
| TAGTTGAATC | 0.957 |
| CCTTAAATTT | 1 |
| AGGAATGTCA | 0.962 |
| TTCACGCGTA | 1.02 |
| ACTCGGAAA | 1.19 |
| CGCGTTGGAA | 1 |
| ACCTAAAGCC | 1.12 |
| AGAAGGGCGT | 0.974 |
| ACGAATTTTG | 0.98 |
| GTTTAGCCTG | 0.989 |
| CAGTTCTTG | 0.963 |
| CTTGATATG | 0.993 |
| CGGACGGTTT | 0.955 |
| GGGCCCGCAG | 1.11 |
| TACCTTCGA | 1.25 |
| TCATCGGCCG | 0.989 |
| CATGTCGCCC | 0.97 |
| CGAAGAGTGG | 1.04 |

| Sequence | switch fluorescence ratio |
| --- | --- |
| AAGGGGCTAG | 1.02 |
| TCATACCCCT | 1.13 |
| CGGCAATGCT | 3.43 |
| TTTCGGCCC | 1.06 |
| GGGATCGGGC | 0.958 |
| AAGGGCGCTA | 0.987 |
| ATCAATTGAC | 0.989 |
| ATGATATTCT | 0.991 |
| ATCTCTCACA | 0.989 |
| TCTGTGATCA | 1.03 |
| ACCAAGTGAT | 1.04 |
| TAGATTGGGA | 1.02 |
| CGGATTCGCT | 0.982 |
| ATAAATTAT | 1.01 |
| TAGGCTGCTC | 0.962 |
| TCCTCGCTCA | 1.14 |
| CATATGGGCC | 1.03 |
| CAATTTATCC | 0.986 |
| GGGTAGCCGT | 0.996 |
| AGGAGATTTA | 1.03 |
| TGCGGACCGC | 1.01 |
| TCAATATACA | 1.06 |
| CGGTCTTGTA | 1 |
| CGTTTAGGGT | 1 |
| ATCGGACCGT | 1.01 |
| TAGCGATGTG | 1.05 |

| Sequence | switch fluorescence ratio |
| --- | --- |
| TGCAAGACAG | 1.08 |
| GGTATTAGAA | 0.95 |
| CACGACAGTA | 1.09 |
| TATACTTTTA | 0.993 |
| CAAAGGAAAG | 1 |
| GGTTTCGGAG | 1.03 |
| GGTGCTATAA | 1.09 |
| TCCGGGCGCG | 1.01 |
| GAGGGTCCAT | 0.994 |
| TTTGGCTCTT | 0.971 |
| TGCCTACGGA | 1.01 |
| CGGTACCTTT | 1.01 |
| CATGAGGTT | 1.01 |
| ATTGACCTGG | 0.955 |
| GTAAAAAAGC | 0.975 |
| AGATAGCCAC | 1.03 |
| TGAATGGGA | 1.01 |
| CCAGGAATGT | 1.01 |
| AGCCGGGGGT | 0.989 |
